In all, about 33,000 sequences were measured (“E-score (-0.5 to 0.5)”: median about -0.036, highest 2% from about 0.37 on). Some of the results follow.
target: T1, Yer064c (UniProt P40041); assay: PBM E-score (8-mer binding enrichment) (E-score (-0.5 to 0.5)); higher = stronger / more preferred TF binding; most listed sequences are background and not binding sites; settings: protein concentration: 200 nM; construct: GST-full length
T1 sequence: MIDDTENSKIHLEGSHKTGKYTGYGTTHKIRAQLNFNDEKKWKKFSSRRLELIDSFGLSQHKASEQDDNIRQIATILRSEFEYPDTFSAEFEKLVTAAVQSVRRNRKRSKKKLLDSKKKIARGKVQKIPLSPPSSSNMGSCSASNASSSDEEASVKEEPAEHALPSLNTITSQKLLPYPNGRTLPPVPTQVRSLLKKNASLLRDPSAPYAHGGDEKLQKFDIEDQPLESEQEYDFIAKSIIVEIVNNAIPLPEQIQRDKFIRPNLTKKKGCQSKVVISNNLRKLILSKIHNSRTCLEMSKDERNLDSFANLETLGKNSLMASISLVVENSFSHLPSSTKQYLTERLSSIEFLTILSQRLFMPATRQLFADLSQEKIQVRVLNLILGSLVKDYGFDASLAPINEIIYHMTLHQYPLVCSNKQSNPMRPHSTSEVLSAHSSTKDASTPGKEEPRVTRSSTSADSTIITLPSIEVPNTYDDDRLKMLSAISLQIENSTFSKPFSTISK
Outline: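 E-scores (a modified Wilcoxon-Mann-Whitney statistic) were assigned by the Universal PBM Analysis Suite to every ungapped eight-base word pooled with its reverse complement. The input came from universal all-10-mer Agilent arrays made double-stranded by primer extension and probed with GST-tagged yeast transcription factors at about 100-200 nM. Fluorescent anti-GST detected bound protein, and masliner normalised the scans.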

| Sequence | PBM E-score |
| --- | --- |
| GCCTAACC | -0.0204 |
| TATGTGAA | -0.00112 |
| CAAAGTCC | -0.222 |
| ACAAGTAT | -0.0156 |
| AAGAGTGC | -0.146 |
| TCAAGGAA | 0.129 |
| TCCCGAAA | -0.119 |
| AATCGCCA | 0.0233 |
| AGTGGTAT | -0.0965 |
| ATGCTCCG | -0.333 |
| ACCACCCA | -0.141 |
| AGACTTAC | 0.181 |
| AATTTGGT | -0.0209 |
| ACAGGTAA | 0.00368 |
| AATGGATG | -0.123 |
| AATGTTTC | -0.129 |
| ACACAACA | -0.0117 |
| GTTCTGGA | -0.0692 |
| GTGGGGGA | -0.216 |
| GATATAAC | -0.0513 |
| CTTCCCAA | -0.0465 |
| ATCACCCG | 0.158 |

| Sequence | PBM E-score |
| --- | --- |
| CGATTGGC | -0.078 |
| CTCCAGCC | -0.294 |
| CTCGTCCC | -0.159 |
| ACCTTTCG | -0.196 |
| ATTATTTG | 0.143 |
| GGCGAGTA | 0.133 |
| GAGGCTGA | 0.106 |
| ATATCTCA | 0.0798 |
| ACCCACGA | 0.116 |
| GAGTCCGA | 0.359 |
| GCCTAAGA | -0.158 |
| GTGACTAA | 0.488 |
| TACGAGTA | 0.212 |
| TCTCCTCA | 0.0382 |
| CCGAGGTC | -0.0793 |
| AAGTAAGC | -0.0828 |
| ATCCTTAA | 0.0511 |
| GGAGTCTA | 0.172 |
| TTGACCAA | 0.0296 |
| ACAACCTA | -0.0701 |
| ACATGGCC | -0.199 |
| ATAAACTA | 0.0484 |

| Sequence | PBM E-score |
| --- | --- |
| CGAAGGAG | -0.0979 |
| ACGAGTCG | 0.383 |
| CGTAACAA | -0.171 |
| TACATCTA | -0.123 |
| ACGTCCGC | -0.236 |
| ACTCGAAA | 0.113 |
| GAGAGACC | -0.193 |
| ACAACCGT | -0.181 |
| GTCTCTGA | 0.154 |
| AATGTCAC | -0.0216 |
| CGCTTTAA | -0.137 |
| ATTCTGTC | -0.0466 |
| ACATAGCT | -0.134 |
| GTTGTCAA | -0.103 |
| CCCGGTCA | -0.0403 |
| GCACATGA | 0.14 |
| GCTATTAA | 0.0172 |
| GGAATACC | -0.355 |
| AGAAAACC | -0.111 |
| TCACTTAA | 0.218 |
| ATATTGAC | 0.219 |
| AAGCCCCT | -0.335 |

| Sequence | PBM E-score |
| --- | --- |
| ACCATTAG | 0.0275 |
| GTAATACA | 0.0916 |
| CGACGTTA | 0.0817 |
| ACTACGGC | -0.00844 |
| GACGCGGC | -0.176 |
| CAAGCGGC | -0.14 |
| CTCTTTAC | 0.034 |
| ACTTGACA | 0.0454 |
| ATTGACCC | 0.00864 |
| ACTCAACG | 0.288 |
| ATAGGTGG | -0.087 |
| ACTTAAGG | 0.228 |
| ACGGCGCT | -0.0852 |
| TACGACGA | 0.071 |
| CAAATCAG | 0.208 |
| GGGGCCCA | -0.291 |
| CATTCCGA | -0.0329 |
| CTGATAGC | -0.0361 |
| GGCTCATA | 0.217 |
| CCTAAATA | -0.0432 |

From the supplement of paper PMC3334620
